Test results reported in patent US11541030B2, “Methods for the treatment of inflammation associated with infection” (NOXOPHARM LIMITED, priority 2020, dated 2023).

Key:
PC-3 cells (STING) = experiment: CPT-induced IL-6 in PC-3 cells; format: cell-based, human; details: PC-3, 0.5 μM CPT 20 hours; H151 1.8 μM, IDX 1.25 μM
MG-63 cells (cGAS-STING) = experiment: ISD transfection (cGAS-STING activation) in MG-63 cells; details: MG-63 pre-treated for 48 hours with IDX (1.25 μM), ISD 2.5 μg/mL
mouse STING = molecular target: T1, mouse STING (Mus musculus, UniProt Q3TBT3); experiment: DMXAA-induced ISRE-luciferase in L929 cells; details: 2.5 uM IDX; DMXAA up to 100 ug/ml
T1 sequence (Q3TBT3 1-378): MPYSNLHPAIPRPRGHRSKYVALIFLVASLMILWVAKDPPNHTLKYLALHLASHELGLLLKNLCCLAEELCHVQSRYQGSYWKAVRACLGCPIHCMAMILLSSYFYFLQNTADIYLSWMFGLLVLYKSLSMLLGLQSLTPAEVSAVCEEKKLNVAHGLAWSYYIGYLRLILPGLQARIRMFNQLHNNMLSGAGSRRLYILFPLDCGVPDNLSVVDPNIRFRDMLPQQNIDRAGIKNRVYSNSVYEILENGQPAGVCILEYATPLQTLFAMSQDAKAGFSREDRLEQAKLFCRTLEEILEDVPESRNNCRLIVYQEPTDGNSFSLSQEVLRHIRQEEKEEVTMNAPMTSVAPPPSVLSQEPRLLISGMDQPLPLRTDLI
Method: FIG. 2: Mouse L929 cells stably expressing an IFN-stimulated responsive element (ISRE)-luciferase reporter were pre-treated for 1 h with indicated doses of IDX, prior an 8 h stimulation with 20 ug/ml DMXAA. Cells were lysed and firefly luciferase was quantified at the end of the experiment. Data shown are averaged from 2 independent experiments in biological triplicate, relative to DMXAA and DMSO only condition control (±SEM).
FIG. 3: Similar to FIG. 2, the L929 cells were pre-treated with 2.5 uM of IDX, prior to stimulation with increasing concentrations of DMXAA for 8 h. Luciferase assays were carried out at 8 hours.
Cell culture and reagents.
To determine whether IDX could inhibit STING signalling more directly, mouse L929 cells stably expressing an IFN-stimulated-responsive luciferase (ISRE-Luc) were pretreated with IDX at various doses for 1 h, prior to DMXAA stimulation for 8 h (FIG. 2). DMXAA is an activator of mouse STING (11).
The inhibitory effect of IDX on IL-6 is not surprising as it is well known that the molecule IDX is closely related in structure to genistein, which inhibits NF-κB signalling. The IDX induced reduction in IL-6 production may therefore be the result from an inhibition of the NF-κB signalling branch downstream of STING. […]

[1] = test system: non-typeable Haemophilus influenzae (NTHi) induced inflammation in THP-1 cells; experiment: NTHi-induced TNF-α in PMA-differentiated THP-1 cells; details: PMA-differentiated THP-1, 2.5 uM IDX 1 hour, NTHi 100 CFU/cell
HOS cells (STING) = experiment: CPT-induced IL-6 in HOS cells; format: cell-based, human; details: 0.2 μM CPT 48 hours, H151 1.8 μM, IDX 1.25 μM
MG63 cells (STING) = experiment: CPT-induced IL-6 in MG63 cells; details: MG63, 0.1 μM CPT 48 hours; IDX 7.5, 5, 2.5 and 1.25 μM

Compound | CPT-induced IL-6 levels (PC-3 cells (STING)) | IL-6 production upon transfection of ISD (MG-63 cells (cGAS-STING)) | effect of increasing DMXAA on inhibition of ISRE-Luc (mouse STING) | NTHi induced inflammation (TNF-α ELISA) [1] | CPT-induced IL-6 levels (HOS cells (STING)) | CPT-induced IL-6 levels (MG63 cells (STING))
CC(=O)Oc1ccccc1C(=O)O [aspirin] | not inhibited | – | – | – | – | –
Oc1ccc(C2=Cc3ccc(O)cc3OC2)cc1 [IDX, 2H-1-Benzopyran-7-0,1,3-(4-hydroxyphenyl)] | significantly reduced | decreased | did not change the efficacy of the inhibition | potent anti-inflammatory effect | strongly reduced | strongly reduced
CCc1ccc(NC(=O)Nc2c[nH]c3ccccc23)cc1 [H151, reference compound] | dampened | – | – | – | inhibition | –
